# According to PubChem BioAssay (NCATS):
# This is one part of the list. The main result of the screen is listed elsewhere. These columns were measured beside it and carry no call. For part of these data: Compounds called inactive in the main read-out are mostly missing here. For part of these data: Words in brackets tell the shape of the fitted curve; partial curves, single points and poor fits give uncertain potencies.
# Key:
# [1] = qHTS drug screen for cell cycle checkpoint inhibitors in PARPi-resistant BRCA-mutant ovarian cancer cell lines. (AID 1963452); conditions: PEO1/OlaR viability, CellTiter-Glo luminescence, 96 h
# Procedure, shortened: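 PEO1, PEO4 and PEO1/OlaR ovarian cancer cells, 600 per well, exposed 96 h at 37C to a dilution series. Viability read by CellTiter-Glo luminescence, normalized to DMSO and empty wells; activity summarized as Z-AUC.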
# [2] = qHTS for identification of novel therapeutic agents for treatment of microphthalmiaassociated transcription factor (MiT) renal cell carcinoma (RCC) (AID 1963991); conditions: CellTiter-Glo, 48 h; for z-score: stronger effect = lower value
# Procedure, shortened: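 Three TFE3-fusion RCC lines (UOK109, UOK124, UOK145), 500 cells/well in complete medium, were treated with MIPE 4.0 compounds for 48 hours at 37 C. Viability was by CellTiter-Glo luminescence, normalized to DMSO (100%) and empty wells (0%); curves fitted over 11 concentrations.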
# [3] = S16 Schwann cell PMP22 intronic element beta-lactamase assay (AID 624044); conditions: S16 rat Schwann cells, PMP22 element beta-lactamase FRET, 24 h; further: nearly all actives have a fitted effect of over 15% in size
# Procedure, shortened: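 Beta-lactamase reporter under a PMP22 intronic regulatory element in stable S16 rat Schwann cells; 24 h compound exposure. 460 nm blue signal normalized between DMSO (0%) and potassium clavulanate, with 535 nm FRET tracking viability; curves classed by r2 and response.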
# [4] = qHTS Assay for Inhibitors of PDE-IV (AID 607); conditions: HEK293 ACTOne CNG channel cells, membrane potential fluorescence; measured here: parental cell counter-screen;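 further: parental cells stimulated with forskolin 10 µM plus RO 20-1724 100 µM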
# Procedure, shortened: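 HEK293 ACTOne cells with CNG channel (1000/well), endogenous PDE4; membrane potential dye, compounds up to 22.9 uM final. Fluorescence Ex 535/Em 590; RO 20-1724 (100 uM final) as reference.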
# [5] = qHTS Validation Assay to Find Inhibitors of Chronic Active B-Cell Receptor Signaling (AID 485345); conditions: ABC-DLBCL cells, chronic BCR signaling reporter
# Procedure, shortened: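 TMD8 ABC-DLBCL cells with dox-inducible green luciferase–IκBα fusion and red native luciferase; compounds 46 uM–3 nM, 4 h at 37C with doxycycline in 0.5% FBS IMDM. Green/red ratio normalized to basal and 10 uM MG-132.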
# [6] = qHTS assay for small molecule antagonists of peroxisome proliferator-activated receptor delta signaling (AID 588535); conditions: HEK293T PPARd-UAS-bla, beta-lactamase FRET ratio, 18 h; 460 nm channel;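 further: cells co-treated with a PPAR-delta agonist as stimulator during compound exposure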
# Procedure, shortened: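 Inhibition of PPAR-delta response element-driven beta-lactamase expression is measured in HEK293T cells exposed to a compound titration series for 18 hrs at 37 C. Half-maximal inhibition comes from Hill equation fitting.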
# [7] = qHTS assay for small molecule antagonists of vitamin D receptor signaling (AID 588541); conditions: HEK293T VDR-UAS-bla, beta-lactamase ratio, antagonist mode; measured here: W460 blue channel (cell viability)
# [8] = qHTS assay for small molecule antagonists of retinoid X receptor alpha signaling (AID 588546); conditions: HEK293T RXRa-UAS-bla, beta-lactamase ratio, antagonist mode; measured here: W530 green channel, cytotoxicity proxy;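 further: cells stimulated with 9-cis-retinoic acid as agonist; on the % scale 0 is the no-effect control and ±100 the full control effect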
# Procedure, shortened: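 Beta-lactamase reporter inhibition, read as CCF4 fluorescence ratio (ex 405, em 460/530 nm) after 2 h at RT. HEK293T UAS-bla cells, 2500/well, were stimulated with 9-cis-RA at 500 or 100 nM final alongside test compound for 18 h at 37 C.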
# [9] = qHTS assay for small molecule antagonists of peroxisome proliferator-activated receptor gamma signaling (AID 588537); conditions: HEK293 PPARg-UAS-bla, beta-lactamase ratio, antagonist mode; measured here: W460 blue channel
# Procedure, shortened: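 Compounds are tested as concentration series for inhibition of rosiglitazone-driven (50 nM) reporter expression in GeneBLAzer PPAR-gamma-UAS-bla HEK293 cells. After 16 h at 37 C, CCF4 substrate is added for 2 h at room temperature and blue/green fluorescence is measured.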
# [10] = qHTS assay for small molecule agonists of retinoid X receptor alpha signaling (AID 588544); conditions: HEK293T RXRa-UAS-bla, beta-lactamase reporter, 18 h; 530 nm emission
# [11] = TFE3-RCC UOK109 viability, measured here: UOK109 Z-AUC
# [12] = TFE3-RCC viability, measured here: UOK124 Z-AUC
# [13] = TFE3-RCC viability, measured here: UOK145 Z-AUC
# [14] = measured here: 460 nm blue channel
# [15] = measured here: 530 nm viability channel
# [16] = measured here: PEO1 parental viability
# [17] = TFE3-RCC viability, measured here: UOK124 cell viability
# [18] = TFE3-RCC viability, measured here: UOK145 cell viability
# Tags describe the fitted curve by direction and shape.
smiles,measurement,setting,value
COc1ccc(C2CC(c3ccccc3)=NN2c2ccc(S(N)(=O)=O)cc2)cc1 (centres undefined),AC50,[1]; measured here: PEO4 viability,"27.5 µM [falling, single point]"
same,z-score,[2]; [11],0.824
same,z-score,[2]; [12],0.348
same,z-score,[2]; [13],0.447
Clc1ccc(C(Cn2ccnc2)OCc2ccsc2Cl)c(Cl)c1 (centres undefined),AC50,[3]; [14],"22.4 µM [falling, partial curve, poor fit]"
same,AC50,[3]; [15],"1.78 µM [falling, full curve]"
same,AC50,[1]; [16],"21.9 µM [falling, single point]"
same,AC50,[1]; measured here: PEO4 viability,"13.8 µM [falling, partial curve, poor fit]"
same,z-score,[2]; [11],0.00699
same,z-score,[2]; [12],0.176
same,AC50,[2]; [17],"33.2 µM [falling, single point]"
same,z-score,[2]; [13],1.98
CC(C)(C)C(=O)OCOP(=O)(COCCn1cnc2c(N)ncnc21)OCOC(=O)C(C)(C)C,AC50,[3]; [14],"4.46 µM [falling, partial curve, poor fit]"
same,AC50,[1]; [16],"12.3 µM [falling, partial curve]"
same,AC50,[1]; measured here: PEO4 viability,"8.71 µM [falling, partial curve]"
same,z-score,[2]; [11],-0.571
same,z-score,[2]; [12],1.64
same,z-score,[2]; [13],-0.676
same,AC50,[2]; [18],"3.72 µM [falling, full curve]"
COc1ccc(CC2SC(=O)NC2=O)cc1C(=O)NCc1ccc(C(F)(F)F)cc1 (centres undefined),AC50,[1]; [16],"24.5 µM [falling, single point]"
same,z-score,[2]; [11],1.27
same,z-score,[2]; [12],0.273
same,z-score,[2]; [13],0.16
O=C(Nc1cccc(Nc2ncc(Br)c(NCCc3cnc[nH]3)n2)c1)N1CCCC1,AC50,[1]; [16],"19.5 µM [falling, partial curve]"
same,AC50,[1]; measured here: PEO4 viability,"8.71 µM [falling, partial curve]"
same,z-score,[2]; [11],1.46
same,z-score,[2]; [12],1.39
same,AC50,[2]; [17],"16.6 µM [falling, partial curve]"
same,z-score,[2]; [13],0.496
same,AC50,[2]; [18],"18.7 µM [falling, partial curve]"
CNC(=O)c1cc(Oc2ccc(NC(=O)Nc3cc(C(C)(C)C)nn3-c3ccc4ncccc4c3)c(F)c2)ccn1,AC50,[1]; [16],"17.4 µM [falling, single point]"
same,AC50,[1]; measured here: PEO4 viability,"27.5 µM [falling, single point]"
same,z-score,[2]; [11],-0.373
same,z-score,[2]; [12],-0.3
same,AC50,[2]; [17],"4.69 µM [falling, full curve]"
same,z-score,[2]; [13],-1.98
same,AC50,[2]; [18],"2.96 µM [falling, full curve]"
COc1cc2ncn(-c3cc(OCc4ccccc4S(C)(=O)=O)c(C#N)s3)c2cc1OC,AC50,[1]; measured here: PEO4 viability,"21.9 µM [falling, single point]"
same,z-score,[2]; [11],0.237
same,z-score,[2]; [12],0.166
same,z-score,[2]; [13],0.37
CC[C@]1(O)CC2CN(CCc3c([nH]c4ccccc34)[C@@](C(=O)OC)(c3cc4c(cc3OC)N(C)[C@H]3[C@@](O)(C(=O)OC)[C@H](OC(C)=O)[C@]5(CC)C=CCN6CC[C@]43[C@@H]65)C2)C1 (some centres undefined),AC50,[3]; [14],"0.398 µM [falling, full curve]"
same,AC50,[1]; [16],"0.977 µM [falling, full curve]"
same,AC50,[1]; measured here: PEO4 viability,"1.23 µM [falling, full curve]"
COc1ccc(Cc2nccc3cc(OC)c(OC)cc23)cc1OC,AC50,[4],"12.6 µM [rising, partial curve]"
same,AC50,[5]; measured here: CBG/CBR ratio read-out,"13 µM [falling, partial curve]"
same,AC50,[5]; measured here: CBR control luciferase (viability counter),"2.91 µM [rising, full curve]"
same,AC50,[3]; [14],"5.35 µM [falling, full curve, poor fit]"
same,AC50,[1]; [16],"0.347 µM [falling, full curve]"
same,AC50,[1]; measured here: PEO4 viability,"15.5 µM [falling, partial curve]"
same,z-score,[2]; [11],0.862
same,z-score,[2]; [12],0.55
same,z-score,[2]; [13],0.543
same,AC50,[2]; [18],"26.4 µM [falling, partial curve, poor fit]"
CCc1nc(N)nc(N)c1-c1ccc(Cl)cc1,max response,[6],83%
same,AC50,[7],"50.1 µM [rising, single point]"
same,max response,[8],0.416%
same,AC50,[3]; [14],"7.94 µM [falling, full curve]"
same,AC50,[1]; [16],"15.5 µM [falling, single point]"
same,AC50,[1]; measured here: PEO4 viability,"3.89 µM [falling, full curve]"
same,z-score,[2]; [11],-0.143
same,z-score,[2]; [12],-1.59
same,AC50,[2]; [17],"1.18 µM [falling, full curve]"
same,z-score,[2]; [13],-0.943
same,AC50,[2]; [18],"4.18 µM [falling, full curve]"
Nc1nc(Cl)nc2c1ncn2[C@H]1C[C@H](O)[C@@H](CO)O1,max response,[6],172%
same,AC50,[1]; [16],"0.49 µM [falling, full curve]"
same,AC50,[1]; measured here: PEO4 viability,"0.347 µM [falling, full curve]"
same,z-score,[2]; [11],-0.419
same,z-score,[2]; [12],0.467
same,AC50,[2]; [17],"7.43 µM [falling, full curve]"
same,z-score,[2]; [13],-1.19
same,AC50,[2]; [18],"0.833 µM [falling, full curve]"
CN(C)c1ccc2nc3ccc(=[N+](C)C)cc-3sc2c1,AC50,[9],"50.1 µM [rising, single point]"
same,max response,[10],-19.8%
same,AC50,[3]; [14],"0.999 µM [falling, full curve]"
same,AC50,[3]; [15],"1.58 µM [falling, full curve]"
same,AC50,[1]; [16],"15.5 µM [falling, single point]"
same,AC50,[1]; measured here: PEO4 viability,"19.5 µM [falling, single point]"
same,z-score,[2]; [11],-0.933
same,z-score,[2]; [12],-1.26
same,AC50,[2]; [17],"4.69 µM [falling, full curve]"
same,z-score,[2]; [13],-0.189
same,AC50,[2]; [18],"13.2 µM [falling, partial curve]"
